# Measured values as given in article PMC5892938.
# The list shows a part of the results. At the low end of the ranking the order means little.
# Target: GST-SBP-SLBP (stem-loop binding protein) (UniProt Q14493)
# Experiment: targeted RNA Bind-n-Seq;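 also: DESeq read counts versus GST-SBP nonspecific binding control pulldown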
# Conditions: RBNS binding buffer: 25 mM Tris pH 7.5, 150 mM KCl, 3 mM MgCl2, 0.1% Tween, 0.5 mg/mL BSA, 1 mM DTT; 27 nM protein, 750 pM RNA pool; temperature not stated; high values mean tight binding
row,Sequence,binding signal (log2 fold change)
1,GGUCACGUCUCAAUCAACUCUACUUCCAGGGAAAUCCCUGGCGUUUUCAACAGCUCGCAGUCAAG,-0.0229
2,GGUCACGUCUCAAUCAACUCAAUCUCAGGAGUUUUCUCCUGCAUAUUCAACAGCUCGCAGUCAAG,0.116
3,GGUCACGUCUCAAUCAACUCUUCGUCAGGAGUUUUCUCCUGUAAUUUCAACAGCUCGCAGUCAAG,-0.0972
4,GGUCACGUCUCAAUCAACUCUUUUUCAGGAGUUUCCUCCUGUAUAUUCAACAGCUCGCAGUCAAG,-0.0169
5,GGUCACGUCUCAAUCAACUCCCAAGAGGGGGGGAAAACCCCUUUACCCUCCAUGUCAACAGCUCGCAGUCAAG,-0.222
6,GGUCACGUCUCAAUCAACUCAACGGAGGGGGGGAAAACCCCUUUACCCUCAAUAUCAACAGCUCGCAGUCAAG,-0.699
7,GGUCACGUCUCAAUCAACUCCUAAGAGGGGGGGAAAACCCCUUUGCCCUCACCUUCAACAGCUCGCAGUCAAG,-0.188
8,GGUCACGUCUCAAUCAACUCAGUCCCCAGGGAAAGCCCUGGCUUUUUCAACAGCUCGCAGUCAAG,-0.185
9,GGUCACGUCUCAAUCAACUCUUAAGAGGGGGGGAAAACCCCUUUACCCUCGAUAUCAACAGCUCGCAGUCAAG,0.0892
10,GGUCACGUCUCAAUCAACUCCAAAGAGGGGGGGAAAACCCCUUUGCCCUCGAUAUCAACAGCUCGCAGUCAAG,-0.56
11,GGUCACGUCUCAAUCAACUCUUCCCCCAGGGAAAUCCCUGGUAUUUUCAACAGCUCGCAGUCAAG,0.234
12,GGUCACGUCUCAAUCAACUCAUCUUCAGGAGUUUUCUCCUGUUUAUUCAACAGCUCGCAGUCAAG,0.138
13,GGUCACGUCUCAAUCAACUCUUACGAGGGGGGGAAAACCCCUUUACCCUCACCAUCAACAGCUCGCAGUCAAG,-0.0533
14,GGUCACGUCUCAAUCAACUCUUCUCCAGGAGUUUACUCCUGCAUAUUCAACAGCUCGCAGUCAAG,-0.194
15,GGUCACGUCUCAAUCAACUCAAACGAGGGGGGGAAAACCCCUUUACCCUCACCAUCAACAGCUCGCAGUCAAG,-0.0165
16,GGUCACGUCUCAAUCAACUCUUUUCCCAGGGAAAUCCCUGGUUUUGUCAACAGCUCGCAGUCAAG,-0.18
17,GGUCACGUCUCAAUCAACUCUUAAGAGGGGGGGAAAACCCCUUUGCCCUCACACUCAACAGCUCGCAGUCAAG,0.323
18,GGUCACGUCUCAAUCAACUCCCACGAGGGGGGGAAAACCCCUUUACCCUCUAAAUCAACAGCUCGCAGUCAAG,0.0887

row,Sequence,binding signal (log2 fold change)
1,GGUCACGUCUCAAUCAACUCUUCGUCAGGAGUUUUCUCCUGUUAUUUCAACAGCUCGCAGUCAAG,0.0262
2,GGUCACGUCUCAAUCAACUCAUCCUCCAGGGAAAACCCUGGCAAAUUCAACAGCUCGCAGUCAAG,0.22
3,GGUCACGUCUCAAUCAACUCUACUUCCAGGGAAAACCCUGGUUAAUUCAACAGCUCGCAGUCAAG,0.14
4,GGUCACGUCUCAAUCAACUCAUCGUCAGGAGUUUCCUCCUGUUUACUCAACAGCUCGCAGUCAAG,-0.0767
5,GGUCACGUCUCAAUCAACUCACUAGAGGGGGGGAAAACCCCUUUACCCUCCACAUCAACAGCUCGCAGUCAAG,-0.134
6,GGUCACGUCUCAAUCAACUCUUCGGCAGGAGUUUACUCCUGGAAAUUCAACAGCUCGCAGUCAAG,0.212
7,GGUCACGUCUCAAUCAACUCACUAGAGGGGGGGAAAACCCCUUUGCCCUCGAAAUCAACAGCUCGCAGUCAAG,0.209
8,GGUCACGUCUCAAUCAACUCGCAAGAGGGGGGGAAAACCCCUUUACCCUCAAUUUCAACAGCUCGCAGUCAAG,0.343
9,GGUCACGUCUCAAUCAACUCAUCCUCAGGAGUUUUCUCCUGUAUAUUCAACAGCUCGCAGUCAAG,-0.0871
10,GGUCACGUCUCAAUCAACUCUCACGAGGGGGGGAAAACCCCUUUGCCCUCACUUUCAACAGCUCGCAGUCAAG,0.351
11,GGUCACGUCUCAAUCAACUCUUCUCCCAGGGAAAUCCCUGGUAAAUUCAACAGCUCGCAGUCAAG,-0.239
12,GGUCACGUCUCAAUCAACUCAUCGCCAGGAGUUUGCUCCUGUAUAUUCAACAGCUCGCAGUCAAG,-0.00513
13,GGUCACGUCUCAAUCAACUCCAACGAGGGGGGGAAAACCCCUUUACCCUCAAACUCAACAGCUCGCAGUCAAG,0.0535
14,GGUCACGUCUCAAUCAACUCUUUUCCCAGGGAAAUCCCUGGCAUACUCAACAGCUCGCAGUCAAG,0.334
15,GGUCACGUCUCAAUCAACUCUUCCUCCAGGGAAAGCCCUGGUUUAUUCAACAGCUCGCAGUCAAG,-0.0553
16,GGUCACGUCUCAAUCAACUCUACUUCAGGAGUUUCCUCCUGUAUACUCAACAGCUCGCAGUCAAG,-0.084
17,GGUCACGUCUCAAUCAACUCUUCCUCCAGGGAAAACCCUGGCUUACUCAACAGCUCGCAGUCAAG,0.173
18,GGUCACGUCUCAAUCAACUCAUCCCCAGGAGUUUGCUCCUGCAUUCUCAACAGCUCGCAGUCAAG,0.306
